Laboratory results from the RNAGym collection of RNA variant scans (doi:10.1093/nar/gkz1192).
Read counts are not given, so values of variants with three or more changes are uncertain.

B1: CPEB3 Ribozyme (parent)
chain: UAACAGGGGGCCACAGCAGAAGCGUUCACGUCGCAGCCCCUGUCAGAUUCUGGUGAAUCUGCGAAUUCUGCUGUAUAUCUC

Variants of: B1
Assay: self-cleavage, relative activity (ratio to wild type); higher = more cleavage; in vitro, sequencing
Procedure, shortened: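 For each CPEB3 ribozyme variant, relative activity is its cleaved/total read fraction divided by the unmutated ribozyme's. Barcoded error-prone PCR libraries were transcribed by T7 RNA polymerase (5 hours, 37°C) and held in DNase I for 15 min before an EDTA stop, with cleavage occurring throughout. Template-switching reverse transcription and Illumina sequencing were used to read the RNAs. A 5-read minimum applied, and results are the mean of three batches.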

Row | Variant | self-cleavage
1 | UAACAGGGGGCCAGAGCAGAAGCGUUCACGUCGCAGCCCCUGGCAGACUCUGGUGAAUCUGCGAAUUCUGCUGUAUAUCAC | 0.34
2 | UAACAGGGGGCCAUAGCAGGAGCGUUCACGUCGCAGCCCCUGUCAGACUCUGGUGAAACUGCGAAUUCUGCUGUAUAUCUC | 0.07
3 | UAACAGGGGGCCAUAGCAGAAGCGUUCACGACGCAGCCCCUGCCGGAUUCUGGUGAAUCUGCGAAUUCUGCUGUGUAUCUC | 0.18
4 | UAACAGGGGGCCAGAGCGGAAGCGUCCACGUCGGAGCCCCUGUCAGACUCUGGUGAGUCUGCGAAUCCUGCUGUAUAUCUC | 0.04
5 | UAACAGGGGGCCAGAGCAGAAGCGUUCACGUCGCAGCCCCUGUCAGAUUCUGGUGAAUCUGCGAACUUUGCUGUAAAUCUC | 0.22
6 | UAACAGGGGGCCAUAGCAGAAGCGUUCACGUCGCAGCCCCUGUCAGAUUCUGGUGAAUCUGCAAAUUCUGCAGUAUAUCUC | 0.69
7 | UAACAGGGGGCCAUAGCAGAAGCGUUCACGUCGCAGCCCCUGUCUGAUUCUGGUGAAUCUGCGAAUUCUGCUGUAUACCUC | 0.87
8 | UAACAGGGGGCCAUAGCAGAAGCGUUCACGUCGCAGCCCCUGUCCGACUCUGGUGAAUCUGCGAAUUCCGCAGUAUAUCUC | 0.16
9 | UAACAGGGGGCCAGAGCAGAAGCGCUUACGUCGCAGCCCCUGUCAGAUUCUGGUGCAUCUGCGAAUUCUGCUGUAUAUCUC | 0.06
10 | UAACAGGGGGCCAUAGCAGAAGCGUUCUCGUCGCAGCCCCUGUCAGAUUCUGGUGAAUCUGCGAAUCCUGCUGUAUAUCCC | 0.15
11 | UAACAGGGGGCCAGCGCAGGGGCGUCCACGUCGCAGCCCCUGUCAGAUUCUGGUGAAUCUGCGAAUUCUGCUGUAUAUCUC | 0.58
12 | UAACAGGGGGCCAUAGCAGAAGCGUUCACGUCGUAGCCCCUGUCAGAUUCUAGUGAGUCCGCGAAUUCUGCUGUAUAUCUC | 0.25
13 | UAACAGGGGGCCAUAGCAGAAGCGUUCACGACGCAGCCCCUGUCAGAUUCUGGUGAAUCUGCGUAUUCUGCUGUAUAUCUC | 0.17
14 | UAACAGGGGGCCAUAGCAGAAGCGUUCACGUCGCGGCCCCUGUCAGAUCCUGGUGAAUCUGCGACUCCUGCUGUAUACCCC | 0.27
15 | UAACAGGGGGCCAUAGCAGAAGCGUUCACGUGGCAGCCCCUGUCAGAUUCUGGUGAAUCUGUGAAUUCGGCUGCAUAUCUC | 0.1
16 | UAACAGGGGGCCAUAGCAGAAGCGUCCACGUCGCAGCCCCUGCCAGAUUCUGGUGAAUCUGCGAAUUCUGCCGUAUGUCUC | 0.83
17 | UAACAGGGGGCCAUAGCAGAAGCGUUCACGUCCCAGCCCCUGUCAGAUUCUGGCGAGUCUGCGAAUUCUGCAGUAUAUCUC | 0.1
18 | UAACAGGGGGCCAGAGCAGAAGCGUUCACGUCGCAGCCCCUGUCAGAUUCUGGUGAAUCUGCGAACUCUGCUGUAAAUCUC | 0.47
19 | UAACAGGGGGCCAUAGCAGGAGCGUUCACGUCGCAGCCCCUGUCAGAUUCUGGUGAAUCUGCGUAUUCGGCUGUAUAUCUC | 0.14
20 | UAACAGGGGGCCAUAGCAGAAGCGUUCACGUCGCGGCCCCUGCCAGAUUCUGGUGAAUCUGCGAAUUCUGCAGUAUAUCUC | 1.25
21 | UAACAGGGGGCCAGAGCAGAAGCACUCACGUCGCAGCCCCUGUCAGAUUCUGGCGAAUCUGCGAAUUCUGCCGUAAGUCUC | 0.06
22 | UAACAGGGGGCCAUAGCAGAAGGGUUCACGUCGCAGCCCCUGUCAGAUACUGGUGUAUCUGCGAAUUCUGCUGUAUAUCUC | 0.2
23 | UAACAGGGGGCCAUGGCAGAAGCGUUCACGUCGCAGCCCCUGUCAGAUUCUGGUGAAUCUGCGAAUUCCGCAGUAUAUCUC | 0.12

Row | Variant | self-cleavage
24 | UAACAGGGGGCCAUAGCGUAAGUGAUCACGUCGCAGCCCCUGUCUGAUUCUGGUGAAUCUGCGAAUUCUGCUGUAUAUCUC | 0.16
25 | UAACAGGGGGCCAUAGCAGAAGCGUACACGUCGCAGCCCCCGUCAGAUUCUGGUGAAUCCGCGAAUUCUGCUGUAUAUCUC | 0.43
26 | UAACAGGGGGCCAGAGCAGAAGCGUUCACGUCGCAGCCCCUGUCAGAUUAUGGUGAAUCUGCGAAUUCCGCUGUAUAUCUC | 0.14
27 | UAACAGGGGGCCAUAGCAGAAGCGAUCACGUCGCAGCCCCUGUCAGAUUCUGGUGAAUCUGCAAAUCCAGCUGUAUAUCUC | 0.06
28 | UAACAGGGGGCCAUAGCAGAAGCGUUCACGUCGCAGCCCUUGUCUGAUUCUGGUGAAUCUGCGAAUACUUCGGUAUAUCUC | 0.04
29 | UAACAGGGGGCCAGAGCAGAAGCGUUCACGUCGCAGCCCCUGCCAGAUUCUGGUGAAUCUGCGUAUUCUGCUGUAUAUCUC | 0.2
30 | UAACAGGGGGCCAUAGCAGAAGCGUUCACGUCGCCGCCCCAGUCAGAAUCUGGUGAAUCUGCGAAUUCUGCUGUAUAUCUC | 0.22
31 | UAACAGGGGGCCAUAGCAGAAGCGCUCACGUCGCGGCCCCUGUCAGAUUCUGGUGAGUCUGCGAAUUCUGCUGUAUAUCUC | 0.35
32 | UAACAGGGGGCCAGAGCAGAAGCGCUCACGUCGCAGCCCCUGUCAGAUUCUGGUGAAUCUGCGAAUUCUGCUGAAUAUCUC | 0.32
33 | UAACAGGGGGCCAUAGCAGAAGCGUUCACGUUGCAGCCACUGUCAGAUUCUGGUUAAUCUGCGAAUUCUGCUGUAUAUAUC | 0.22
34 | UAACAGGGGGCCAUAGCAGAAGCGUUCACGUCGCAGCCCCUGUCAGAUUCUGGUGAAUCUGCGAGUCCUGCUGUAUAUCUC | 0.08
35 | UAACAGGGGGCCAAAGCAGAAGCGUGCACGACGCAGCCCCUGUCAGAUUCUGGUGAAUCUGCGAAUUCUGCUGUAUAUCUC | 0.09
36 | UAACAGGGGGCCAUUGCAGGAGCGUUCACAUCCCAGCCCCUGUCAGAUUCUGGUGAAUCUGCGAAUUCUGCUGUAUAUCUC | 0.04
37 | UAACAGGGGGCCAUAGCGGAAGCGUUCACGUCGCAGCCCCUGUCAGAUUCUGGUGAAUCUGCGUAUUCUGCUGUAUAUCUC | 0.24
38 | UAACAGGGGGCCAGGGCAGAAGCGUUCACGUCGCAGCCCCUGUCAGAUUCUGGUGAACCUGCGGAUUCUGCUGUAUAUCUC | 0.28
39 | UAACAGGGGGCCAUAGCAGAAGCGUUCACGUCGCAGCCCCUGUCAGAUUCUGGUGGAUCUGCGAAUUCUACAGUAUAUCUC | 0.28
40 | UAACAGGGGGCCAUAGCGUAAGUGUUCACGACGCAGCCCCUGUCAGAUUCUGGUGAAUCUGUGAAUUCUGCUGUAUAUCUC | 0.06
41 | UAACAGGGGGCCAAAGCAGAAGCGGUCACGUCGCAGCCCCUGACAGAUUCUGGUGAAUCUGCGAAUUCUGCUGUUUAUCUC | 0.48
42 | UAACAGGGGGCCAUAGCAGAACCGUUCACGUCGCAGUCCCUGCCAGAUUCUGGUGAAUCUACGAAUUCUGCUGUAUACCUC | 0.04
43 | UAACAGGGGGCCAGCGCAGAAGCGUUCACGUCGCAGCCCCUGUCAGAUUCUGGUGAAUCUGCGAUUUCUGCUGUAUAUCUC | 0.15
44 | UAACAGGGGGCCAUAGCAGAGGCGUUCACGUCGCAGCCCCUGUCAGAUUAUGGUGAAUCUGCGAAUACUGCUGUAUAUCUC | 0.19
45 | UAACAGGGGGCCAUAGCAGAAGCGUUCACGUCGCAGCCACUGUCAGAUUCUGGCGAAUCUGCGAAUUCUGCUGUAUAUCCC | 0.35
46 | UAACAGGGGGCCAUAGCAGAAGCGUUCACGCCGCAGCCCCUGUCAGAUCCUGGUGAAUCCGCGAACUCUGCUGUAUAUCUC | 0.09

Row | Variant | self-cleavage
47 | UAACAGGGGGCCAUGGCAGAAGCGUUCACGUCGCAGCCCCUGUCAGAUUCUGGUGAAUGUGCGGAUUCUGCUGUAUAUCUC | 0.1
48 | UAACAGGGGGCCAUGGCAGAAGCGUUCACGUCGCAGCCCCUGUCUGAUUCUGGUGAAUCUGCGAAUUCUGCUGUAUAUCUC | 0.93
49 | UAACAGGGGGCCAUGGCAGAAGCGUUCACGACGCGGCCCCUGUCAGGUCCUGGUGAAUCUGCGAAUUCUGCUGUAUAUCUC | 0.57
50 | UAACAGGGGGCCAUAGCAGAAGCGUUCACGUCGCAGCCCCUGUCAGAUUCUGGUGAAUCUGCAAAUUCUGCUGUAUACCUC | 1.17
51 | UAACAGGGGGCCAUAGCGGAAGCGUUCACGUCGCGGCCCCUGUCAGAUUCUGGUGAAUCUGCGAAUUCUGCUGCAUAUCUC | 1.26
52 | UAACAGGGGGCCAUGGCAGAAGCGUUCACGUCGCAGCCCUUGUCAGAUUCUGGUGUAUCCGGGAAUUCUGCUGAAUAUCUC | 0.05
53 | UAACAGGGGGCCAAAGCAGAACCGUUCACGCCGCAGCCCCUGACAGAUUCUGGUGAAUCAGCGAAUUCCGCUGUAUAUCUC | 0.04
54 | UAACAGGGGGCCAUAGCAGAAGCGUUCACGUCGCGGCCCCUGUCAGAUUCUGGUGAAACUGCGAAUUCUGCUGUAUAUCUC | 1.2
55 | UAACAGGGGGCCAAAGCAAAAGCGUUCACGUCGCAGCCCCUGUCAGAUUCUGGUGAAUCUGCGAAUUCUGCUGUAAAUCAC | 0.21
56 | UAACAGGGGGCCAUAGCAGAAGCGUUCACGUCGCAGCCACUGUCAGAUCCUGGUGAAUCUGCGAAUUCUGCUGUAUAUCUC | 0.04
57 | UAACAGGGGGCCAUGGCAGAAGCGUUCUCGUAGCAGCCCCUGUCAGGUUCUGGUGAAUCUGCGAAUUCUGCUGUACAUCUC | 0.04
58 | UAACAGGGGGCCAUAGUAGAAGCGUCCACGUCGCAGCCCCAGUCAGAUUCUGGUGAAUCUGCGAAUUCUGAUGUAUAUCUC | 0.05
59 | UAACAGGGGGCCAUAGCAGAAGCGUACACGUCGCAGCCCCUGUCAGAUUCUGGUGAAUCUGCGAAUUCUGCUGUAUGUCUC | 0.83
60 | UAACAGGGGGCCAUAGCAGAAGCGUUCACAUCGCAGCCCCUGUCAGGUUCUGGUGAAUCUGCGAAUUCUGCUGUAUAUCUC | 0.42
61 | UAACAGGGGGCCAGAGCAGAGGCGUCCACGUCGCAGCCCCUGUCAGGUUCUGGUGAAUCUGCGAAUUCUGCUGUAUAUCUC | 0.08
62 | UAACAGGGGGCCAGAGCAGAAGCGUUCACGUCGCUGCCCCUGUCUGAUUCUGGUGAAUCUGCGAAUUCUGCUGUAUAUCUC | 0.23
63 | UAACAGGGGGCCAGAGCAGAAGCGUUCACGUCGGAGCCCCUGUCAGACUCUGGUGAGUCUGCGAAUUCUGCUGUAUAUCUC | 0.21
64 | UAACAGGGGGCCAUAGCAGAAGCGAUCACGUCGCAGCCCCUGCCAGAUUCUGGUGAAUCUGCGAAUUCUGCUGUAUAUCUC | 0.43
65 | UAACAGGGGGCCAGUGCAGAAGCGCUCACGUCGCAGCCCCUGUCAGAUUCUCGUGAGUCUGCGAAUUCUGCUGUAUACCUC | 0.04
66 | UAACAGGGGGCCAGAGCAGAGGCGUUCACGUCGCAGCCCCUGUCAGAUUCUGGUGGAUCUGCGAAUUCUGCUGUAUAUCUC | 0.51
67 | UAACAGGGGGCCAGAGCAGAAGCGUUCACGUCGCAGCCCCCGUCGGAUUAUGGAGAAUCUGCGAAUUCUGCUGUAUAUCUC | 0.89
68 | UAACAGGGGGCCAGAGCAGAAGCAUUCACGUCGCGGCCCCCGUCAGAUUCUGGUGAAUCUGCGAAUUCUGCUGUAUAUCUC | 0.5
